In assay [1] the target is T1, VEGF-A (UniProt P15692-4 27-191, limits assumed).
T1 construct: also called vascular endothelial growth factor A
T1 sequence (looked up): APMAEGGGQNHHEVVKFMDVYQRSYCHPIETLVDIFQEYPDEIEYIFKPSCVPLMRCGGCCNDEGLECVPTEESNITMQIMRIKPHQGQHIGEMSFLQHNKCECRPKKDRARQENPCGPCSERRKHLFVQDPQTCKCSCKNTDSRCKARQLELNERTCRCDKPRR
The experiment in a line: BLI Octet RED96e, AHC capture.

In assay [2] the target is T2, PLGF (UniProt P49763-2 19-149, limits assumed).
T2 construct: also called placental growth factor
T2 sequence (looked up): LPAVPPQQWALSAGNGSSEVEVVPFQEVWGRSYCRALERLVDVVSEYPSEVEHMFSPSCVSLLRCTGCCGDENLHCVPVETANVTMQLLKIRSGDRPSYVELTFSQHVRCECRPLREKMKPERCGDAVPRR
The experiment in a line: BLI Octet RED96e, AHC capture. A general note: In BLI a coated tip is dipped into the sample, and binding shifts an interference pattern.

In assay [3] the target is T1, VEGF-A. The experiment in a line: BLI Octet RED96e, AHC capture. This is another data set of the same source.
Assay [4] concerns the target T2, PLGF. The assay can be described thus: BLI Octet RED96e, AHC capture. The source holds these as a separate data set.
In assay [5] the target is T1, VEGF-A. The experiment in a line: BLI Octet; fold increase vs C88.
Assay [6] has as its target T2, PLGF. The experiment in a line: BLI Octet; fold increase vs C88.
Assay [7] addresses T1, VEGF-A. The experiment in a line: BLI Octet; fold increase vs C88. This is another data set of the same source.
For assay [8], the target named is T2, PLGF. The assay can be described thus: BLI Octet; fold increase vs C88. This is another data set of the same source.
Assay [9] addresses T3, VEGF-A (UniProt P15692-4 27-191, limits assumed).
T3 sequence (looked up): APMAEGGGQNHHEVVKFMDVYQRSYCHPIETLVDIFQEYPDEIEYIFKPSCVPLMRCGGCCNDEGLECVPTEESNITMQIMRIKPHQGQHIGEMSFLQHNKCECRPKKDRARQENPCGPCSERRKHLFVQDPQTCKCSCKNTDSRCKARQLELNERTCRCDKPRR
The assay can be described thus: cell-based or functional assay.

For assay [10], the target named is T4, VEGF-A (UniProt P15692-4 27-191, limits assumed).
T4 construct: Analyte at 40, 20, 10 nM; also called vascular endothelial growth factor A
T4 sequence (looked up): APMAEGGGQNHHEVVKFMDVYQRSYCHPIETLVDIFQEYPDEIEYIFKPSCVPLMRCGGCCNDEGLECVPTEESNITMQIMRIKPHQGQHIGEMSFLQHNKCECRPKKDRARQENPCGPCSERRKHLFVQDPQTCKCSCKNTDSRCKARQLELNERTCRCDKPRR
The experiment in a line: BLI (Octet), fusion captured on AHC sensor.

In assay [11] the target is T5, PLGF (UniProt P49763-2 19-149, limits assumed).
T5 construct: also called placental growth factor
T5 sequence (looked up): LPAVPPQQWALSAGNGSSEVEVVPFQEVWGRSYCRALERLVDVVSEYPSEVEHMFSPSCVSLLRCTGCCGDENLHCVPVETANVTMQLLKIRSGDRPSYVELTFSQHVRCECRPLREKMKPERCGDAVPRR
The assay can be described thus: BLI (Octet), fusion captured on AHC sensor.

Assay [12] has as its target T4, VEGF-A. The experiment in a line: BLI (Octet), fusion captured on AHC sensor. The source holds these as a separate data set.
The target in assay [13] is T5, PLGF. The experiment in a line: BLI (Octet), fusion captured on AHC sensor. This is another data set of the same source.
Assay [14] deals with T4, VEGF-A. The assay can be described thus: BLI (Octet), fusion captured on AHC sensor; fold increase vs C88.
Assay [15] addresses T5, PLGF. The description is as above.
Assay [16] deals with T4, VEGF-A. Described as above. This is another data set of the same source.
The target of assay [17] is T5, PLGF. Described as above. The source holds these as a separate data set.
Assay [18] deals with VEGF-A (UniProt P15692). The assay can be described thus: cell-based or functional assay.

B1: C88 (Fc fusion)
chain: EFGRPFVEMYSEIPEIIHMTEGRELVIPCRVTSPNITVTLKKFPLDTLIPDGKRIIWDSRKGFIISNATYKEIGLLTCEATVNGHLYKTNYLTHRQTNTIIDVQISTPRPVKLLRGHTLVLNCTATTPLNTRVQMTWSYPDEKNKRASVRRRIDQSNSHANIFYSVLTIDKMQNKDKGLYTCRVRSGPSFKSVNTSVHIYDKALE[gap - human IgG1 Fc]
notes: dimer only said as embodiment; also called VEGFR-wild type protein
For the molecule B1, the dissociation constant (Kd) – broadly, a measure of binding affinity in units of concentration – in assay [1] amounted to 60.8 pM; in assay [2], 205 pM; in [4], 205 pM. The koff – broadly, the rate constant with which the complex falls apart – in [1] worked out at 3.51e-05 s⁻¹; in assay [2], 0.000248 s⁻¹; in assay [3] it was 3.51e-05 s⁻¹; in assay [4], 0.000248 s⁻¹. The association rate constant (kon) (usually the rate constant with which the complex forms) in [1] is 578000 M⁻¹ s⁻¹; in assay [2], 1.21e+06 M⁻¹ s⁻¹; in assay [3] it was 578000 M⁻¹ s⁻¹; in [4], 1.21e+06 M⁻¹ s⁻¹. Also, the “Fold (KD)” value in assay [5], in [6], in [7] and in assay [8] was 1 fold each time. Further, the “Fold (kdis)” value in assay [5], in assay [6], in assay [7] and in assay [8] was 1 fold throughout. Moreover, the “Fold (kon)” value in assay [5], in assay [6], in assay [7] and in [8] was 1 fold throughout.

B2: C88 (Fc fusion)
chain: EFGRPFVEMYSEIPEIIHMTEGRELVIPCRVTSPNITVTLKKFPLDTLIPDGKRIIWDSRKGFIISNATYKEIGLLTCEATVNGHLYKTNYLTHRQTNTIIDVQISTPRPVKLLRGHTLVLNCTATTPLNTRVQMTWSYPDEKNKRASVRRRIDQSNSHANIFYSVLTIDKMQNKDKGLYTCRVRSGPSFKSVNTSVHIYDKALE[gap - human IgG1 Fc]
As to B2, the “VEGF-A inhibition (IC50, µg/ml)” value in assay [9] amounted to 0.0528 µg/mL.

B3: C88 (Fc fusion)
chain: EFGRPFVEMYSEIPEIIHMTEGRELVIPCRVTSPNITVTLKKFPLDTLIPDGKRIIWDSRKGFIISNATYKEIGLLTCEATVNGHLYKTNYLTHRQTNTIIDVQISTPRPVKLLRGHTLVLNCTATTPLNTRVQMTWSYPDEKNKRASVRRRIDQSNSHANIFYSVLTIDKMQNKDKGLYTCRVRSGPSFKSVNTSVHIYDKALE[gap - human IgG1 Fc]
notes: also called VEGFR-wild type protein
With B3, the off-rate constant (koff) came to 3.51e-05 s⁻¹ in assay [10], 0.000248 s⁻¹ in assay [11], 3.51e-05 s⁻¹ in assay [12] and 0.000248 s⁻¹ in [13]. The on-rate (kon) in assay [10] was determined as 578000 M⁻¹ s⁻¹; in [11], 1.21e+06 M⁻¹ s⁻¹; in [12] it was 578000 M⁻¹ s⁻¹; in assay [13], 1.21e+06 M⁻¹ s⁻¹. Also, the Kd was 205 pM in assay [11], 60.8 pM in assay [12] and 205 pM in assay [13]. Further, the “Fold (KD)” value in assay [14], in [15], in assay [16] and in assay [17] was 1 fold throughout. The “Fold (kdis)” value in assay [14], in assay [15], in assay [16] and in assay [17] was 1 fold in each case. Besides, the “Fold (kon)” value in assay [14], in assay [15], in assay [16] and in assay [17] was 1 fold each time.

B4: C109 (Fc fusion)
chain: EFGRPFVEMYSEIPEIIHMTEGRELVIPCRVTSPNITVTLKKFPLDTLIPDGKRIIWDSRKGFIISNATYKEIGLLTCEATVNGHLYKTNYLTHRQTNTIIDVQISTPRPVKLLRGHTLVLNCTATTPLNTRVQMTWSYPDEKNKRASVRRRIDQSNSHANIFYSVLTIDKMQNKDKGLYTCRVRSGPSFKSVNTSVHIYDGSKVDKKV[gap - human IgG1 Fc with changes]
notes: Linker variant based on C88; control without disulfide bond
In [10], B4 gave a Kd of 267 pM, an off-rate constant (koff) of 0.000139 s⁻¹ and a kon of 521000 M⁻¹ s⁻¹. For the same molecule, in assay [11], the dissociation constant (Kd) turned out to be 247 pM, the koff was 0.000402 s⁻¹ and the on-rate (kon) was 1.63e+06 M⁻¹ s⁻¹. For the same molecule, in [14], the “Fold (KD)” value was 0.23 fold, the “Fold (kdis)” value amounted to 0.25 fold and the “Fold (kon)” value was 0.9 fold. For the same molecule, in assay [15], the “Fold (KD)” value was 0.83 fold, the “Fold (kdis)” value amounted to 0.62 fold and the “Fold (kon)” value worked out at 1.34 fold.

B5: C112 (Fc fusion)
chain: EFGRPFVEMYSEIPEIIHMTEGRELVIPCRVTSPNITVTLKKFPLDTLIPDGKRIIWDSRKGFIISNATYKEIGLLTCEATVNGHLYKTNYLTHRQTNTIIDVQISTPRPVKLCRGHTLVLNCTATTPLNTRVQMTWSYPDEKNKRASVRRRIDQSNSHANIFYSVLTIDKMQNKDKGLYTCRVRSGPSFKSVNTSVHIYDCSKVDKKV[gap - human IgG1 Fc with C220S H224Y (EU numbers)]
notes: Disulfide bond variant based on C88
The molecule B5 yielded an IC50 (µg/ml), luciferase reporter, KDR/NFAT-RE HEK293 cells in assay [18] of 0.034 µg/mL. In [10], this molecule came in with a Kd of 207 pM, a koff of 0.00014 s⁻¹ and a kon of 678000 M⁻¹ s⁻¹. Moreover, in assay [11], the dissociation constant Kd turned out to be 43.8 pM, the koff worked out at 4.49e-05 s⁻¹ and the on-rate (kon) was 1.03e+06 M⁻¹ s⁻¹. Besides, in [14], the “Fold (KD)” value is 0.29 fold, the “Fold (kdis)” value was determined as 0.25 fold and the “Fold (kon)” value amounted to 1.17 fold. Further, in assay [15], the “Fold (KD)” value is 4.68 fold, the “Fold (kdis)” value came out at 5.53 fold and the “Fold (kon)” value turned out to be 0.85 fold.

B6: C89 (Fc fusion)
chain: EFGRPFVEMYSEIPEIIHMTEGRELVIPCRVTSPNITVTLKKFPLDTLIPDGKRIIWDSRKGFIISNATYKEIGLLTCEATVNGHLYKTNYLTHRQTNTIIDVQISTPRPVKLLRGHTLVLNCTATTPLNTRVQMTWSYPDEKNKRASVRRRIDQSNSHANIFYSVLTIDKMQNKDKGLYTCRVRSGPSFKSVNTSVHIYDLE[gap - human IgG1 Fc]
Consider B6, for which, in assay [9], the “VEGF-A inhibition (IC50, µg/ml)” value is 0.172 µg/mL.

B7: C114 (Fc fusion)
chain: EFGRPFVEMYSEIPEIIHMTEGRELVIPCRVTSPNITVTLKKFPLDTLIPDGKRIIWDSRKGFIISNATYKEIGLLTCEATVNGHLYKTNYLTHRQTNTIIDVQISTPRPVELCVGETLVLNCTATTPDNTRVQMTWSYPDEKNKRASVRRRIDQSNSHANIFYSVLTIDGMTNSDKGLYTCRVRSGPSFKSVNTSVHIYDCGSSGGSSGEPKS[gap - human IgG1 Fc and a few adjoining residues]
notes: Combination variant based on C88
In assay [12], B7 yielded a koff of less than 1e-07 s⁻¹ and a kon of 547000 M⁻¹ s⁻¹. In assay [13], this molecule showed a Kd of 160 pM, a koff of 0.000298 s⁻¹ and an association rate constant (kon) of 1.86e+06 M⁻¹ s⁻¹. In assay [16], the “Fold (KD)” value was more than 60.9 fold, the “Fold (kdis)” value was more than 100 fold and the “Fold (kon)” value came out at 0.95 fold. Besides, in assay [17], the “Fold (KD)” value was determined as 1.28 fold, the “Fold (kdis)” value was 0.83 fold and the “Fold (kon)” value was 1.53 fold.

B8: C113 (Fc fusion)
chain: EFGRPFVEMYSEIPEIIHMTEGRELVIPCRVTSPNITVTLKKFPLDTLIPDGKRIIWDSRKGFIISNATYKEIGLLTCEATVNGHLYKTNYLTHRQTNTIIDVQISTPRPVELCVGETLVLNCTATTPANTRVQMTWSYPDEKNKRASVRRRIDQSNSHANIFYSVLTIDGMTNSDKGLYTCRVRSGPSFKSVNTSVHIYDCSNTGSGGEEKKKEKEKEEQEERSSDTPP[gap - human IgG1 Fc]
notes: as for B7
Regarding B8, in [18], the IC50 (µg/ml), luciferase reporter, KDR/NFAT-RE HEK293 cells turned out to be 0.0299 µg/mL. In assay [12], this molecule came in with an equilibrium dissociation constant (Kd) of 220 pM, an off-rate (koff) of 0.000123 s⁻¹ and an on-rate constant (kon) of 556000 M⁻¹ s⁻¹. In assay [13], the Kd was found to be 114 pM, the koff is 0.000168 s⁻¹ and the association rate constant (kon) is 1.47e+06 M⁻¹ s⁻¹. In [16], the “Fold (KD)” value stood at 0.28 fold, the “Fold (kdis)” value was 0.29 fold and the “Fold (kon)” value came out at 0.96 fold. In [17], the “Fold (KD)” value came out at 1.8 fold, the “Fold (kdis)” value was determined as 1.48 fold and the “Fold (kon)” value worked out at 1.22 fold.

These data come from patent US20260034244A1 (PANOLOS BIOSCIENCE, published 2026).
